Measurements taken from patent US12612465B2, “Formulations comprising PCSK9 specific monoclonal antibodies” (Amgen Inc., priority 2012, dated 2026).

Target: human D374Y PCSK9 (Homo sapiens, UniProt Q8NBP7, D374Y/E620G/G670E/V474I)
Assay: Receptor ligand blocking screen / functional screening of hybridoma antibodies
Format: binding
Description: To screen for the antibodies that block PCSK9 binding to LDLR an assay was developed using the D374Y PCSK9 mutant. […] The following protocol was employed in the receptor ligand blocking screen: Costar 3702 medium binding 384 well plates (Corning Life Sciences) were employed in the screen. The plates were coated with goat anti-LDLR (R&D Cat # AF2148) at 2 μg/ml in 1×PBS/0.05% Azide at a volume of 40 μl/well. The plates were incubated at 4° C. overnight. The plates were then washed using a Titertek plate washer (Titertek, Huntsville, Ala.). A 3-cycle wash was performed. The plates were blocked with 90 μl of 1×PBS/1% milk and incubated approximately 30 minutes at room temperature. The plates were then washed using the Titertek plate washer. A 3-cycle wash was performed. The capture sample was LDLR (R&D, Cat #2148LD/CF), and was added at 0.4 μg/ml in 1×PBS/1% milk/10 mM Ca^2+ at a volume of 40 μl/well. The plates were then incubated for 1 hour and 10 minutes at room temperature. […] OD's were read immediately at 450 nm using a Titertek plate reader. […]
Limiting dilution was used to isolate a manageable number of clones from each line. […] The concentration and potency of the antibodies to PCSK9 in the supernatants of those cultures were determined by ELISA and by in vitro functional testing, as described herein.

human D374Y PCSK9, sequence (Q8NBP7 153-692 D374Y/V474I/E620G/G670E): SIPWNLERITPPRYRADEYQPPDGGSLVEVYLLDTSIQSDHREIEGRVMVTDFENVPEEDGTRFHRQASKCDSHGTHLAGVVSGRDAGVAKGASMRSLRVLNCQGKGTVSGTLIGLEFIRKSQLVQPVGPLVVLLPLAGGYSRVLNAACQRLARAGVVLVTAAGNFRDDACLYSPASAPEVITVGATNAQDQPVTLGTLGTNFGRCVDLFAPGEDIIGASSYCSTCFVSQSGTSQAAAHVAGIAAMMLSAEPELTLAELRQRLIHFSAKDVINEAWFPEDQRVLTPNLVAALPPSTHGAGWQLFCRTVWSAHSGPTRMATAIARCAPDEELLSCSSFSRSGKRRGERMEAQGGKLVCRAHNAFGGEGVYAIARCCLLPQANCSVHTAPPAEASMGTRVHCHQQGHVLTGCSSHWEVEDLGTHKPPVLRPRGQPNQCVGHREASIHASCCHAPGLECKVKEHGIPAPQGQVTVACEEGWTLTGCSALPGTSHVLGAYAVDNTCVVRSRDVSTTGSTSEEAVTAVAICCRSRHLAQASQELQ

B1: 9C9: anti-PCSK9 ABP, light/heavy variable region SEQ ID NO 30/64 (antibody, listed as Homo sapiens, V domains shown)
VH: EVQLVESGGGLVQPGGSLRLSCVVSGFTFSSYWMSWVRQAPGKGLEWVANIKQDGSEKYYVDSVKGRFTISRDNAKNSLYLQMNSLRAEDTAVYYCARESNWGFAFDIWGQGTMVTVSS
VL: QSVLTQPPSASGTPGQRVTISCSGSSSNIGSKTVNWYQQVPGTAPKLLIYRNNQRPLGVPDRFSGSKSGTSASLAISGLQSEDEADYYCAAWDDSLNWVFGGGTKLTVL
With B1 the neutralizing ability was “weak neutralizers”.
